Data reported in PMC4336329 (PLoS ONE, 2015).
The whole screen tested about 310,000 compounds, of which about 2,200 (0.71%) showed an effect of 50% or more. The effect is printed as a negative number. The list shows a part of the results. Where a SMILES comes first, the peptide text is derived from it. The star is where a group is joined. Cbz = O=C(OCc1ccccc1)*

Molecular target: human ether-à-go-go-related gene (hERG) potassium channel (human, UniProt Q12809)
Test: primary screen, population patch clamp on CHO cells stably expressing hERG

human ether-à-go-go-related gene (hERG) potassium channel, sequence (Q12809 whole entry, looked up): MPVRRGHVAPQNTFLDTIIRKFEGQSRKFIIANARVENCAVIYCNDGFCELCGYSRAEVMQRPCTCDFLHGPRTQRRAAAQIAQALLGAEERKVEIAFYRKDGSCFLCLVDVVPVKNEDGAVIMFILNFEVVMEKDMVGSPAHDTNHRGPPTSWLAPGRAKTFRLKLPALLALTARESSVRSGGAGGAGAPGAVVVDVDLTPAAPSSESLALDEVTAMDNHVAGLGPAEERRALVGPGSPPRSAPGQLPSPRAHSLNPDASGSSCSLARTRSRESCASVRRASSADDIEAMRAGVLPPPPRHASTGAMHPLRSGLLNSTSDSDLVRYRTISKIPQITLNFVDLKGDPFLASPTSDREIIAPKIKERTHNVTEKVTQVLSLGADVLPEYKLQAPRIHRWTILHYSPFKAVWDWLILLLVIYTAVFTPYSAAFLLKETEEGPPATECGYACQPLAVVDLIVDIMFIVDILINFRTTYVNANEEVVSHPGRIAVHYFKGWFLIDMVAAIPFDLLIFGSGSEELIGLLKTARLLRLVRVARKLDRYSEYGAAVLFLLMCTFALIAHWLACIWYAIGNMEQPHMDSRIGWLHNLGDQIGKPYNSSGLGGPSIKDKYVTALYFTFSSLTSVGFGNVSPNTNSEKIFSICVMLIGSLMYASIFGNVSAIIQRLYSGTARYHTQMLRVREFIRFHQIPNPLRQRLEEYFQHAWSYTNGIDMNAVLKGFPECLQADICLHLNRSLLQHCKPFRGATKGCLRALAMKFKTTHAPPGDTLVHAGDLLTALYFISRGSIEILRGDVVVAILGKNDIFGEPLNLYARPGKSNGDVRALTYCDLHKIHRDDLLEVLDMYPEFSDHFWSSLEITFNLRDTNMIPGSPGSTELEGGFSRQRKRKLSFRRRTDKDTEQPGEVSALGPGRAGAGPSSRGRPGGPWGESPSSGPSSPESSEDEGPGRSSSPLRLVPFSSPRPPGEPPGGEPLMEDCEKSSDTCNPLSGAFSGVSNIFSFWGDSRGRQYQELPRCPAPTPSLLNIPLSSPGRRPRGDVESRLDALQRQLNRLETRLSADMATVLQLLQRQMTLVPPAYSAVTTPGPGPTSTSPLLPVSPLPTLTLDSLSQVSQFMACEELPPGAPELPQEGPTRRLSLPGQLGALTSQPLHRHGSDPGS

Structure (SMILES)	hERG current change (%, negative = inhibition) at 1uM [%]
CCCOc1ccc(C(O)(CCN2CCCCC2)c2ccccc2OC)cc1.Cl (centres unmarked)	5.1
O=Cc1cn(-c2ccccc2)nc1-c1cc2c(ccc3ccccc32)oc1=O	9.89
CSc1ccccc1NC(=O)CN1CCN(S(=O)(=O)c2ccccc2[N+](=O)[O-])CC1	-0.993
COC(=O)c1ccc(/C=N/NC(=O)c2cccc(F)c2)cc1	12.2
COc1ccc(NC(=O)CSc2nc3cccnc3n2C)cc1	13.9
Oc1ccc(-c2nc(-c3ccc(F)cc3)c(-c3ccncc3)[nH]2)cc1	1.23
Cc1ccc(OCC(=O)Nc2ccc(F)cc2)c([N+](=O)[O-])n1	8.65
O=S(Cc1ccc(Br)cc1)Cc1nnc(SCc2ccc(Br)cc2)n1-c1ccccc1 (centres unmarked)	8.54
Cc1cc(N2CCN(C)CC2)ccc1NC(=O)c1c2c(nc3ccccc13)CCN(Cc1ccccc1)C2	9.88
CC1(C)Cc2c(c(N3CCOCC3)nc3sc4c(NCc5ccccc5)nnnc4c23)CS1	-5.68
CCOC(=O)c1c(C)[nH]c(C(=O)NCCN2CCOCC2)c1C	14.1
O=P(c1ccccc1)(c1ccccc1)C(O)c1ccncc1 (centres unmarked)	18.7
CN1/C(=C\C(=O)Nc2cccc(Cl)c2)C(C)(C)c2ccccc21	3.51
O=C(NCc1ccco1)C1CCCN(S(=O)(=O)c2cccc3nonc23)C1 (centres unmarked)	4.31
CC1CC(C)CN(C(=O)CNS(=O)(=O)c2cccs2)C1 (centres unmarked)	12.6
CCCN1CCN(C(=S)Nc2sc(CC)cc2C(=O)OC)CC1	11.7
COc1ccc(-c2cc(C(=O)Nc3c(C)n(C)n(-c4ccccc4)c3=O)no2)cc1	4.76
COc1ccc(OC)c(NC(=O)CN2C(=O)CSc3ccc(S(=O)(=O)N4CCCC4)cc32)c1	11.2
COc1ccc(-c2c(C#N)c(SCC(N)=O)nc3c2CCCC3)cc1	4.57

Structure (SMILES)	hERG current change (%, negative = inhibition) at 1uM [%]
NS(=O)(=O)c1cccc(NC(=O)CCN2C(=O)C3CCCCC3C2=O)c1 (centres unmarked)	17.8
COc1ccccc1CCNC(=O)c1ccc(C)o1	-13.9
COc1ccc(O)c(C=NCC(C)N=Cc2cc(OC)ccc2O)c1 (centres unmarked)	10.1
CC(=O)Oc1ccc(/C=C(\NC(=O)c2ccco2)C(=O)Nc2ccc(C(C)=O)cc2)cc1	7.47
Cc1ccc(-n2nc3c(c2NC(=O)CC(C)C)CS(=O)(=O)C3)c(C)c1	25.6
COc1cccc(NC(=O)C2CCCN2C(=O)NC2CCCCC2)c1 (centres unmarked)	14.9
CC(NC(=O)CNC(=O)C(Cc1ccccc1)NC(=O)OCc1ccccc1)C(N)=O (stereo not drawn) (Cbz-Phe-Gly-Ala-NH2; configuration not given here)	19.7
CC(C)c1cc(-c2cc(C(=O)Nc3ccccc3)on2)nc(NC2CCCC2)n1	-0.452
CCCc1oc(C(=O)O)cc1CN.Cl	9.54
CC(=O)Nc1ccc(OC(=O)c2ccco2)cc1	9.5
O=C1NC(=O)N(Cc2ccccc2)C(=O)/C1=C/N1CCCc2ccccc21	16.5
CC(C)Oc1ccc(OCCn2c(=S)[nH]c3c(N)ncnc32)cc1	10.7
Cc1nc(C(=O)O)nn1-c1ccc([N+](=O)[O-])cc1	13
CC(C)[C@H](NC(=O)c1c(F)cccc1F)C(=O)OCC(=O)NC(=O)NC1CCCC1	4.69
CCN1CCc2c(sc(NC(=O)Cc3ccccc3)c2C(=O)OC)C1.Cl	-6.48
Cn1c(=O)c2c(nc(Br)n2CC(=O)C23CC4CC(CC(C4)C2)C3)n(C)c1=O	-1.49
Cc1cccc(Cc2c(C)[nH]c(=O)c(C#N)c2C)c1	4.05
Cc1cccc(C2NC(c3cccc(C)c3)C(C)C(=O)C2C)c1 (centres unmarked)	15.9
CC1(C)CC2(C)Nc3ccccc3N2C(=S)N1 (centres unmarked)	17.4

Structure (SMILES)	hERG current change (%, negative = inhibition) at 1uM [%]
CCOC(=O)C1=C(C)NC(=O)C(C(N)=O)C12CCCCC2 (centres unmarked)	16.7
COc1ccc(Cc2nc3ccc(S(=O)(=O)N4CCOCC4)cc3[nH]2)cc1OC	13.9
Cc1cccc(NC(=S)N2CCN(S(=O)(=O)c3cccc(F)c3)CC2)c1	9.44
CCCNC(=O)c1ccccc1C(=O)NCCC	1.81
Cc1cc(C)cc(NC(=O)CSc2nc(=O)n3cc(C)ccc3n2)c1	-0.827
COc1ccc(C2NCCc3cc(OC)c(OC)cc32)cc1OC (centres unmarked)	3.45
Cc1cc2c(NCc3ccccc3)ncnc2s1.Cl	9.26
CCn1c(=O)c2cc(C(=O)N3CCOCC3)sc2c2ccccc21	9.17
COc1cc2c(cc1OC)C(C)N(C(=O)/C=C/c1cc(OC)c(OC)c(OC)c1)CC2 (centres unmarked)	11
O=C1c2ccccc2S(=O)(=O)N1CC1CC(c2ccccc2)=NO1 (centres unmarked)	13.7
CCOC(=O)N1CCN(C(=O)c2cc3c(=O)n(C)c4ccccc4c3n2C)CC1	2.29
COc1ccc(/C=c2\sc3nc(-c4ccccc4)c(-c4ccccc4)n3c2=O)cc1OC	12.3
Nc1nc2ccccc2n1Cc1ccc(Cl)c(Cl)c1	5.95
CCOc1[nH]n(-c2ccccc2)c(=O)c1C=NCc1cccnc1	-10.5
FC(F)(F)c1nnc2ccc(NCc3ccccc3)nn12	7.88
CCSc1nc2sc3c(c2c(=O)n1-c1ccccc1C)CCN(C)C3	13.8
Cn1c(C(=O)O)cc2c(=O)n3ccccc3nc21	17.2
Cn1nc(C(=O)NCc2ccccc2Cl)c2c1-c1ccccc1S(=O)(=O)C2	17.3
